# In all, about 390,000 compounds went through this assay and about 930 (0.24%) were called active. This list was built around the results that the source calls inconclusive (neither active nor inactive); the mix of calls is not that of the screen. Calls come from the whole dose curve; as a rule, active = well fitted activation curve with a large enough effect; inconclusive = small, poorly fitted or top-dose-only effect; inactive = no such curve, though single readings can be large or run the other way. A potency beside an inconclusive call is a rough fit, not a confirmed value.
# Experiment: qHTS for Suppressors of FUS Proteinopathy: Primary screen using FUS-linked yeast assay; note: nearly all actives have a fitted effect of over 55% in size
# Settings: S. cerevisiae FUS-expressing, OD600, 24 h; Potency: growth rescue; series mostly up to 76.6 µM
# Procedure, shortened: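 FUS-expressing yeast, raffinose-pregrown, induced in 2% galactose minimal medium at OD 0.005; compounds in a dilution series, 24hr at 30C. Growth restoration read as absorbance at 600 nm. CP55940 positive control, DMSO negative.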
# Potency is the fitted concentration of half-maximal effect; tags give direction and shape of the fitted curve.
row,Structure (SMILES),Potency
1,C#CCN(C[C@@H]1[C@@H](OC(=O)NC2CC2)[C@@H](OC(=O)NC2CC2)Cn2c(=O)n(CCCCCC)c(=O)n21)S(=O)(=O)c1ccc(C)cc1,"inconclusive: 35.5 µM [activator, single point]"
2,CCOC(=O)C1CCCN(C(=O)c2ccc3c(c2)N(Cc2ccccc2F)C(=O)c2ccccc2S3=O)C1 (stereo not drawn),"inconclusive: 7.08 µM [activator, partial curve, poor fit]"
3,Cc1nn(Cc2ccc(F)cc2)c(C)c1NC(=O)C1c2ccccc2Oc2ccccc21,"inconclusive: 50.1 µM [activator, single point]"
4,CCCN(C(=O)Cn1ncc2c([nH]c3ccccc32)c1=O)c1ccc(F)cc1,"inconclusive: 35.5 µM [activator, single point]"
5,Oc1ccc(Nc2ccc3ccccc3c2)cc1,inactive
6,C[C@@H]1CN([C@@H](C)CO)C(=O)c2c(c3ccccc3n2C)-c2ccccc2CO[C@H]1CN(C)C(=O)[C@H](C)c1ccccc1,"inconclusive: 17.8 µM [activator, partial curve, poor fit]"
7,CCCCCCCCN1C(=O)[C@H](CC(=O)NCCCOCCCC)C[C@@]2(C(=O)OC)CC(C)(C)CC=C12,"inconclusive: 10 µM [activator, partial curve, poor fit]"
8,CCn1cc2nc(SCc3cccc(C)c3)n(CCc3ccccc3)c(=O)c2n1,"inconclusive: 28.2 µM [activator, single point]"
9,COc1ccc(C(=O)COC(=O)c2nc3nccc(C)n3n2)cc1F,"inconclusive: 25.1 µM [activator, partial curve]"
10,Cc1ccc(S(=O)(=O)n2nc(-c3ccco3)nc2NCc2ccc(N(C)C)cc2)cc1,"inconclusive: 35.5 µM [activator, single point]"
11,CN1CCCN(S(=O)(=O)c2cccc(C(F)(F)F)c2)c2nc3ccccc3nc21,"inconclusive: 25.1 µM [activator, single point]"
12,CCOC(=O)[C@@]12CN(C(=O)OC(C)(C)C)CC=C1N(Cc1ccc(OC)cc1)C(=O)[C@H]2CC(=O)N1CCN(C(=O)C2CC2)CC1,"inconclusive: 2 µM [activator, full curve, poor fit]"
13,O=C(CSc1nc2ccc(F)cc2c(=O)n1-c1ccccc1)Nc1ccc2c(c1)CCC2,"inconclusive: 22.4 µM [activator, single point]"
14,Cc1nc2nc(SCC(=O)NC3CCC(C)CC3)nn2c(C)c1Cc1ccccc1Cl (stereo not drawn),"inconclusive: 39.8 µM [activator, single point]"
15,Cc1ccc(S(=O)(=O)C(CNC(=O)c2ccc(C(F)(F)F)cc2)c2ccco2)cc1 (stereo not drawn),"inconclusive: 39.8 µM [activator, single point]"
16,COc1ccc(OC)c(NC(=O)c2c(NCc3ccc(N(C)C)cc3)sc3c2CCCC3)c1,"inconclusive: 39.8 µM [activator, partial curve, poor fit]"
17,CCn1ccnc1CN(C)Cc1cn(-c2cccc(C)c2)nc1-c1cccc(F)c1,"inconclusive: 39.8 µM [activator, single point]"
18,CN(Cc1ccco1)S(=O)(=O)c1nnc(NC(=O)c2ccccc2)s1,"inconclusive: 12.6 µM [activator, partial curve, poor fit]"
19,CCOC(=O)c1cccc(C2=CC(=O)C[C@H](c3ccc(OC)cc3)C2)c1,"inconclusive: 28.2 µM [activator, single point]"
20,CC1CC(C)CN(C(=S)SCc2nc(N)nc(Nc3ccccc3)n2)C1 (stereo not drawn),"inconclusive: 44.7 µM [activator, single point]"

row,Structure (SMILES),Potency
1,CCCCNc1c(-c2ccc(Sc3ccc(OC)cc3)cc2)nc2cc(C)ccn12,"inconclusive: 28.2 µM [activator, partial curve]"
2,O=C(CSc1nnc(-c2ccccc2F)n1Cc1ccco1)Nc1ccccc1-c1ccccc1,"inconclusive: 20 µM [activator, partial curve, poor fit]"
3,COc1ccc([C@@H]2[C@@H]3C(=O)N(C(C)(C)C)C(=O)[C@@H]3[C@]3(Cc4ccc(Cl)cc4)C(=O)N(c4ccc(C)cc4)C(=O)N23)cc1,"inconclusive: 10 µM [activator, partial curve]"
4,COc1ccc(C2c3[nH]c4ccccc4c3C[C@H]3C(=O)N(c4ccccc4C(=O)N4CCC(C(=O)O)CC4)C(=O)N23)cc1 (stereo partly drawn),active: 22.4 µM
5,O=C(Nc1ccc(F)c(Cl)c1)C1CCN(S(=O)(=O)c2ccc3c(c2)CCCN3C(=O)C2CCC2)CC1,"inconclusive: 15.8 µM [activator, partial curve]"
6,Cc1ccc(CSc2cn(CCNC(=O)c3cccs3)c3ccccc23)cc1,"inconclusive: 50.1 µM [activator, single point]"
7,CC(C)(C)CC(C)(C)N=C1Nc2cc(Cl)c(Cl)cc2NC12C[C@H]1CCC(=O)N3CC[C@@H](C2)[C@@H]13 (stereo partly drawn),"inconclusive: 28.2 µM [activator, single point]"
8,CCOC(=O)c1ccccc1NC(=O)Cn1c(=O)n(-c2ccc(CC)cc2)c(=O)c2c(C)c(C(=O)N(C)C)sc21,inactive
9,COC(=O)C1(CO)NC(c2cccs2)C2C(=O)N(c3ccccc3)C(=O)C21 (stereo not drawn),"inconclusive: 28.2 µM [activator, partial curve, poor fit]"
10,Cn1cnnc1SCC(=O)Nc1sc2c(c1C(N)=O)CCC2,active: 7.08 µM
11,CCOC(=O)Cc1csc(NC(=O)c2sc3nc4c(C)cc(C)cc4cc3c2N)n1,inactive
12,COc1ccc(F)cc1-c1cc(NC=O)c2ncc(-c3cccc(C(=O)N(C)C)c3)n2c1,"inconclusive: 50.1 µM [activator, single point]"
13,CN(CC(=O)Nc1cccc(F)c1)C(=O)c1cc(-c2cccs2)nn1-c1ccccc1,"inconclusive: 50.1 µM [activator, single point]"
14,CC1CCN(C(=O)CSc2nnc(Cc3cccn3C)n2CCc2ccccc2)CC1,"inconclusive: 14.1 µM [activator, partial curve]"
15,CN1C(=O)[C@@](O)(c2cn(C)c3ccccc23)c2ccccc21,inactive
16,Cc1noc(C)c1NC(=O)Nc1ccc2c(c1)C(=O)N([C@H](C)CO)C[C@H](C)[C@@H](CN(C)C(=O)Nc1ccc(C(F)(F)F)cc1)O2,"inconclusive: 31.6 µM [activator, single point]"
17,CC(=O)N(C)c1ccc(N=NC2C(=O)N(C(N)=S)N=C2C)cc1 (stereo not drawn),"inconclusive: 31.6 µM [activator, single point]"
18,CCOC(=O)C1=CC[C@H]2c3c(c4ccc(OC)cc4n3C)C(=O)C1N2S(=O)(=O)c1ccc(C)cc1,"inconclusive: 39.8 µM [activator, single point]"
19,CN(CC(=O)Nc1ccccc1C(F)(F)F)Cc1c(O)ccc2ccccc12,inactive
20,CCOC(=O)c1ccccc1NC(=O)COC(=O)CCNS(=O)(=O)c1ccccc1,inactive

row,Structure (SMILES),Potency
1,COc1cc2c(-c3ccc4[nH]ccc4c3)c(-c3ccc(C#N)cc3)oc(=O)c2cc1OC,"inconclusive: 15.8 µM [activator, partial curve]"
2,S=c1[nH]nc(-c2n[nH]c3c2CCC3)n1N=Cc1c2ccccc2cc2ccccc12,"inconclusive: 22.4 µM [activator, partial curve, poor fit]"
3,O=C1CCC2(CCC(c3ccccc3)CC2)N1CCCO (stereo not drawn),inactive
4,COc1ccc(Cl)cc1NC(=O)C1CSC(c2ccncc2)=N1 (stereo not drawn),inactive
5,COc1ccc(CCn2c3c(c(=O)[nH]c2=O)C(NC(=O)c2ccc(C(C)(C)C)cc2)(C(F)(F)F)C(=O)N3)cc1OC (stereo not drawn),"inconclusive: 50.1 µM [activator, single point]"
6,CCCCCCCCN1C(=O)[C@H](CC(=O)N2CCN(C(=O)OCC)CC2)C[C@@]2(C(=O)OC)CCCCC=C12,"inconclusive: 20 µM [activator, partial curve, poor fit]"
7,CCOC(=O)c1cnc(SCc2nc(N)nc(Nc3ccc(F)cc3)n2)nc1N,"inconclusive: 7.94 µM [activator, full curve, poor fit]"
8,CC(OC(=O)CN(C)S(=O)(=O)c1ccc(Cl)cc1)C(=O)Nc1cccc(Cl)c1 (stereo not drawn),"inconclusive: 11.2 µM [activator, single point]"
9,COc1cccc(-c2sc3ccccc3c2-c2ccc(OCCN3CCCCC3)cc2)c1,"inconclusive: 35.5 µM [activator, single point]"
10,CCc1ccc(C(=O)c2cn(Cc3ccc(F)cc3)c3cc(OC)c(OC)cc3c2=O)cc1,active: 35.5 µM
11,CN1CCN(S(=O)(=O)c2ccc3ccccc3c2)CC1,inactive
12,O=C(Nc1ccon1)c1cccc(C(F)(F)F)c1,inactive
13,COc1ccc(CCNC(=O)CCn2c(=O)c3ccccc3n(Cc3ccccc3)c2=O)cc1OC,inactive
14,Cc1onc(C(=O)N2CCN(C(c3ccc(Cl)cc3)c3ccc(Cl)cc3)CC2)c1[N+](=O)[O-],inactive
15,CCCCCn1c(=O)[nH]c2cc(C(=O)N3CCN(c4cccc(C(F)(F)F)c4)CC3)ccc2c1=O,inactive
16,CCOc1ccc(NC(=O)Cn2c(=O)n(CC(=O)NCc3ccccc3Cl)c(=O)c3sccc32)cc1,"inconclusive: 39.8 µM [activator, single point]"
17,COC(=O)[C@]12C[C@H](CC(=O)NCC3CCCCC3)C(=O)N(Cc3ccco3)C1=C[C@H](C(C)C)O[C@@H]2C1CC1,"inconclusive: 22.4 µM [activator, single point]"
18,COc1ccc(CNC(=O)c2oc3c(c2C)-c2nn(Cc4ccc(Cl)cc4)cc2CC3)cc1,"inconclusive: 25.1 µM [activator, single point]"

# Reference: PubChem BioAssay AID1347120 (National Center for Advancing Translational Sciences (NCATS), 2019)
